Experimental data from the supplement of paper PMC12217912.
The list shows a part of the results. Sequences were assembled here from the parent chain. Inactive controls read about 0.05.

B1: TEV protease; numbered along this chain (parent)
chain: MGESLFKGPRDYNPISSSICHLTNESDGHTTSLYGIGFGPFIITNKHLFRRNNGTLVVQSLHGVFKVKDTTTLQQHLVDGRDMIIIRMPKDFPPFPQKLKFREPQREERICLVTTNFQTKSMSSMVSDTSCTFPSGDGIFWKHWIQTKDGQCGSPLVSTRDGFIVGIHSASNFTNTNNYFTSVPKNFMELLTNQEAQQWVSGWRLNADSVLWGGHKVFMVKPEEPFQPVKEATQL

Variants of: B1
Experiment: raw area under fraction-flipped curve 0-4 h after induction (AUC4h, not background-subtracted), DNA-recorder readout of cleavage of the substrate (dimensionless); higher = more cleavage of the substrate by the protease variant
Conditions: temperature: 34 °C; time window: 0-4 h after rhamnose induction
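Note: Bxb1 expression induced with 0.2% (w/v) L-rhamnose at OD600 near 0.5, cultures sampled hourly, flipped fraction per protease–substrate barcode pair counted by paired-end Illumina sequencing.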

| Variant | area with substrate ENLYFCS | area with substrate ENLYFDS | area with substrate ENLYFES | area with substrate ENLYFGS | area with substrate ENLYFHS | area with substrate ENLYFKS | area with substrate ENLYFMS | area with substrate ENLYFRS | area with substrate ENLYFSS | area with substrate ENLYFTS | area with substrate ENLYFYS | area with substrate ENLYFFS | area with substrate ENLYFIS | area with substrate ENLYFLS | area with substrate ENLYFPS | area with substrate ENLYFWS | area with substrate ENLYFNS | area with substrate ENLYFVS |
| --- | --- | --- | --- | --- | --- | --- | --- | --- | --- | --- | --- | --- | --- | --- | --- | --- | --- | --- |
| MGESLFKGPRDYNPISSSICHLTNESDGHTTSLYGIGFGPFIITNKHLFRRNNGTLVVQSLHGVFKVKDTTTLQQHLVDGRDMIIIRMPKDFPPFPQKLKFREPQREERICLVTTNFQTKSMSSMVSDTSCTFPSGDGIFWKHWIQTKDGQCGSPLVSTRDGFIVGIHSASNFTNTNNYFTSVPKNFMELLTNQEAQNWVSGWRLNADSVLWGGHKVFMVKPEEPFQPVKEATQL [Q198N] | 0.0638 | 0.0807 | 0.0462 | 0.0563 | 0.0585 | 0.0633 | 0.0689 | 0.0747 | 0.0691 | 0.0734 | 0.0515 | – | – | – | – | – | – | – |
| MGESLFKGPRDYNPISSSICHLTNESDGHTTSLYGIGFGPFIITNKHLFRRNNGTLVVQSLHGVFKVKDTTTLQQHLVDGRDMIIIRMPKDFPPFPQKLKFREPQREERICLVTTNFQTKSMSSMVSDTSCTFPSGDGIFWKHWIQTKDGQCGSPLVSTRDGFIVGIHSASNFTNTNNYFTSVPKNFMELLTNQEAQTWVSGWRLNADSVLWGGHKVFMVKPEEPFQPVKEATQL [Q198T] | 0.0586 | 0.0907 | 0.0626 | – | – | 0.0625 | 0.075 | 0.0508 | – | 0.0621 | – | 0.0789 | 0.0818 | 0.0614 | 0.0587 | 0.0423 | – | – |
| MGESLFKGPRDYNPISSSICHLTNESDGHTTSLYGIGFGPFIITNKHLFRRNNGTLVVQSLHGVFKVKDTTTLQQHLVDGRDMIIIRMPKDFPPFPQKLKFREPQREERICLVTTNFQTKSMSSMVSDTSCTFPSGDGIFWKHWIQTKDGQCGSPLVSTRDGFIVGIHSASNFTNTNNYFTSVPKNFMELLTNQEAQQWVGGWRLNADSVLWGGHKVFMVKPEEPFQPVKEATQL [S201G] | 0.0624 | 0.0526 | 0.0616 | 0.0673 | 0.0398 | – | 0.0455 | – | 0.0659 | 0.0572 | 0.056 | 0.0652 | 0.0578 | 0.0581 | 0.0598 | 0.115 | 0.0568 | – |
| MGESLFKGPRDYNPISSSICHLTNESDGHTTSLYGIGFGPFIITNKHLFRRNNGTLVVQSLHGVFKVKDTTTLQQHLVDGRDMIIIRMPKDFPPFPQKLKFREPQREERICLVTTNFQTKSMSSMVSDTSCTFPSGDGIFWKHWIQTKDGQCGSPLVSTRDGFIVGIHSASNFTNTNNYFTSVPKNFMELLTNQEAQQWVSGWRLNKDSVLWGGHKVFMVKPEEPFQPVKEATQL [A207K] | 0.0792 | – | – | – | 0.067 | – | – | 0.0513 | 0.0632 | – | 0.0518 | 0.0769 | 0.0412 | 0.0842 | 0.0613 | 0.0729 | 0.065 | – |
| MGESLFKGPRDYNPISSSICHLTNESDGHTTSLYGIGFGPFIITNKHLFRRNNGTLVVQSLHGVFKVKDTTTLQQHLVDGRDMIIIRMPKDFPPFPQKLKFREPQREERICLVTTNFQTKSMSSMVSDTSCTFPSGDGIFWKHWIQTKDGQCGSPLVSTRDGFIVGIHSASNFTNTNNYFTSVPKNFMELLTNQEAQQWVSGWRLNADSVLGGGHKVFMVKPEEPFQPVKEATQL [W212G] | 0.0458 | 0.0544 | 0.059 | – | – | 0.0527 | – | 0.0591 | – | – | – | 0.0673 | 0.0584 | 0.0492 | 0.064 | – | – | 0.0607 |
| MGESLFKGPRDYNPISSSICHLTNESDGHTTSLYGIGFGPFIITNKHLFRRNNGTLVVQSLHGVFKVKDTTTLQQHLVDGRDMIIIRMPKDFPPFPQKLKFREPQREERICLVTTNFQTKSMSSMVSDTSCTFPSGDGIFWKHWIQTKDGQCGSPLVSTRDGFIVGIHSASNFTNTNNYFTSVPKNFMELLTNQEAQQWVSGWRLNADSVLWGGHKVNMVKPEEPFQPVKEATQL [F218N] | 0.0506 | – | – | 0.0628 | – | – | 0.066 | 0.0675 | – | – | 0.069 | – | – | – | 0.0537 | 0.0318 | 0.0578 | – |
| MGESLFKGPRDYNPISSSICHLTNESDGHTTSLYGIGFGPFIITNKHLFRRNNGTLVVQSLHGVFKVKDTTTLQQHLVDGRDMIIIRMPKDFPPFPQKLKFREPQREERICLVTTNFQTKSMSSMVSDTSCTFPSGDGIFWKHWIQTKDGQCGSPLVSTRDGFIVGIHSASNFTNTNNYFTSVPKNFMELLTNQEAQQWVSGWRLNADSVLWGGHKVFMVKPEEPFWPVKEATQL [Q227W] | 0.0598 | 0.0432 | 0.0671 | – | 0.05 | 0.0705 | 0.0694 | 0.0613 | – | – | 0.0578 | 0.0358 | 0.0483 | – | 0.0268 | – | 0.0578 | – |
| MGESLFKGPRDYNPISSSICHLTNESDGHTTSLYGIGFGPFIITNKHLFRRNNGTLVVQSLHGVFKVKDTTTLQQHLVDGRDMIIIRMPKDFPPFPQKLKFREPQREERICLVTTNFQTKSMSSMVSDTSCTFPSGDGIFWKHWIQTKDGQCGSPLVSTRDGFIVGIHSASNFTNTNNYFTSVPKNFMELLTNQEAQQWVSGWRLNADSVLWGGHKVFMVKPEEPFQPVSEATQL [K230S] | 0.0727 | – | 0.0634 | – | 0.0263 | – | 0.0815 | 0.0515 | 0.0653 | 0.0977 | 0.062 | 0.0679 | 0.0662 | 0.0685 | 0.0559 | 0.0595 | – | 0.0545 |
| MGESLFKGPRDYNPISSSICHLTNESDGHTTSLYGIGFGPFIITNKHLFRRNNGTLVVQSLHGVFKVKDTTTLQQHLVDGRDMIIIRMPKDFPPFPQKLKFREPQREERICLVTTNFQTKSMSSMVSDTSCTFPSGDGIFWKHWIQTKDGQCGSPLVSTRDGFIVGIHSASNFTNTNNYFTSVPKNFMELLTNQEAQQWVSGWRLNADSVLWGGHKVFMVKPEEPFQPVKNATQL [E231N] | 0.0722 | 0.0169 | 0.0562 | 0.063 | 0.0674 | – | 0.0616 | 0.0525 | 0.0671 | 0.0592 | 0.0546 | 0.0648 | 0.0487 | 0.0547 | 0.0655 | 0.046 | – | 0.055 |
